Results as given in publication PMC4336329 (PLoS ONE, 2015).
Out of some 310,000 compounds screened, about 2,200 (0.71%) showed an effect of 50% or more. The effect is printed as a negative number. The list shows a part of the results.

What follows are molecules tested against human ether-à-go-go-related gene (hERG) potassium channel (human, UniProt Q12809) (assay: primary screen, population patch clamp on CHO cells stably expressing hERG).
Sequence of human ether-à-go-go-related gene (hERG) potassium channel (Q12809 whole entry, looked up): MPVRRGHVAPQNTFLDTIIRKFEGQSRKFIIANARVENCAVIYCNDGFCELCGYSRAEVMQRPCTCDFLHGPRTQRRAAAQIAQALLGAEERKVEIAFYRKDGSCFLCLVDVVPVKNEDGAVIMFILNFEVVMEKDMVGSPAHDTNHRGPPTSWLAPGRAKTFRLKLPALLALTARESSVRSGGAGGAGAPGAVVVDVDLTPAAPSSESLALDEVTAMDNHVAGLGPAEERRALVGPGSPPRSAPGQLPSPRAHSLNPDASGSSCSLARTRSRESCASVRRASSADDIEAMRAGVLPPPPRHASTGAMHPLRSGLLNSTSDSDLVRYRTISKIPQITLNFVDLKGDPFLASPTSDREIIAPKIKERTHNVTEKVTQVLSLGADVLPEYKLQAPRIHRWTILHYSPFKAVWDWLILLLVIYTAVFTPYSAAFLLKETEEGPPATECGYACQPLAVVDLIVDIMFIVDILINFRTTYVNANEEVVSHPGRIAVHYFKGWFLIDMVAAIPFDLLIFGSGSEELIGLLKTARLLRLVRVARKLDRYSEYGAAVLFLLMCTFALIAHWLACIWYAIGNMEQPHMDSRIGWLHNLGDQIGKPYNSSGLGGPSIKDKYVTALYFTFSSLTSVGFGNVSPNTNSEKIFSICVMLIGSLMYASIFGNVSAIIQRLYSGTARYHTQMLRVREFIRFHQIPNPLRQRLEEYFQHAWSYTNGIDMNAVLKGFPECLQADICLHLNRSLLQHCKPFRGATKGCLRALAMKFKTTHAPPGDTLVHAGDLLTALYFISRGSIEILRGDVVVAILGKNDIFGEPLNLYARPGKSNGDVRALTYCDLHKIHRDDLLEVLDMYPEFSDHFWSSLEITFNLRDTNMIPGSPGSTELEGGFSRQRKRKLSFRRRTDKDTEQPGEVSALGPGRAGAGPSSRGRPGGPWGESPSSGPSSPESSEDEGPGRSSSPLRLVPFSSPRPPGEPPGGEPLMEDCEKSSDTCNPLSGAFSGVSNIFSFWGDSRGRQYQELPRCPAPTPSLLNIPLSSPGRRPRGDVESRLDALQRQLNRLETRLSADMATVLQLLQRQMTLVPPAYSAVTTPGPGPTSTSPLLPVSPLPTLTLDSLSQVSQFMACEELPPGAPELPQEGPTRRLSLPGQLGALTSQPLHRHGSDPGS

SMILES	hERG current change (%, negative = inhibition) at 1uM
Cc1ccc(S(=O)(=O)Nc2cc(C(C(=O)OC(C)C)C(=O)C(F)(F)F)c(O)c3ccccc23)c(C)c1 (stereo not drawn)	15.2%
CSCC(CO)NS(=O)(=O)c1ccc(C)cc1 (stereo not drawn)	12.1%
O=C(NCCc1c[nH]c2ccc(Cl)cc12)c1cccnc1	4.84%
CCOC(=O)N1CCC(Nc2c(-c3ccccc3)c(=O)c2=O)CC1	1.25%
Cc1ccccc1NS(=O)(=O)c1ccc(C(=O)N2CC(C)OC(C)C2)cc1 (stereo not drawn)	8.07%
O=C(COC(=O)c1cccc(S(=O)(=O)N2CCc3ccccc32)c1)Nc1ccc(Cl)cn1	10.3%
O=C(CSc1ccc(-c2cccnc2)nn1)Nc1ccccc1	12.1%
CCOC(=O)N1CCC(NC(=O)c2cccc3c2C(=O)N(Cc2cccnc2)C3)CC1	2.17%
Cc1ccc(O)c(C(=O)c2cc(C(=O)NCc3ccccc3)c(=O)n(Cc3ccccc3)c2)c1	14.5%
COc1cccc(CN(C)C(=S)Nc2ccc(C)c(C)c2)c1	10%
COc1ccc(CC(=O)NCC2CCCN(Cc3ccc(OC)cc3F)C2)cc1 (stereo not drawn)	6.22%
CC1CCCCC1NC(=O)COC(=O)/C=C/c1ccc2c(c1)OCO2 (stereo not drawn)	16.5%
CCN(CC1CCCN(CCc2cccc(OC)c2)C1)C(=O)C=C(C)C (stereo not drawn)	-6.97%
CCN(CC)CCOC(=O)c1ccc(N/C=C(/C#N)c2nc(-c3ccc(OC)c(OC)c3)cs2)cc1	10.9%
Cc1ccc(S(=O)(=O)Nc2ccc(NC(=O)Nc3ccc(F)cc3F)cc2)cc1	0.874%
Cc1ccc(/C=C/C(=O)OCC(=O)NC(C)C)o1	7.15%
CCOC(=O)c1c(NC(=S)NC(C)=O)sc(C)c1C	13.3%
Cc1cccc(NCc2nc(SCC(=O)Nc3ccccc3)n[nH]2)c1	13.6%
COc1ccc(CCNC(=O)CNS(=O)(=O)c2ccc(Cl)cc2)cc1	6.58%
Cc1ccc(CN2CCN(/N=C\c3cccc([N+](=O)[O-])c3)CC2)cc1	7.04%
CC1Cc2ccccc2N1C(=O)CSc1nnc2n1C(C)(C)Cc1ccccc1-2 (stereo not drawn)	14.8%
Oc1cccc(/C=N/Nc2ccc(Cl)nn2)c1O	11.2%
Cc1cc(Nc2ccc3ccccc3c2)n2ncnc2n1	-0.317%
Cc1cc(/C=C2\Cc3ccccc3C2=O)c(C)n1-c1ccccc1	-5.15%
